Measured values reported in patent US20070066800A1, “Apo2l(trail) receptor binding peptides and uses thereof” (priority 2003, published 2007).

Columns and labels:
[1] = biological target: T1, human DR5-ECD (SEQ ID NO: 105) (Homo sapiens, UniProt O14763, A67V/E190F/V191A); test: ELISA: inhibition of binding of Apo-2L to Apo-2L receptor human DR5-ECD; conditions: LB881 fused to GCN4 leucine zipper, linker GGSGGM; read-out: Ic 50 Elisa
T1 construct: Human DR5-ECD long form polypeptide

[2] = test system: SK-MES-1 human lung carcinoma cells; test: Alamar blue bioassay of apoptosis induction; assay type: cell-based; conditions: SK-MES-1 cells, 24 hours, alamarBlue; values in nM; read-out: Ec 50 bio-assay
Experimental: Alamar Blue Assay of Ability of Apo-2 Receptor binding Peptides to Agonistically Induce Apoptosis
Briefly, serial 2-fold dilutions of Apo-2L.0 or this Apo2L receptor binding peptide were made in RPMI-1640 media (Gibco) containing 0.1% BSA, and 50 μL of each dilution was transferred to individual wells of 96-well Falcon tissue culture microplates. The terms “Apo-2L.0” and “Apo2L.0” refer to a form of Apo-2 ligand polypeptide consisting of amino acids 114 to 281 of FIG. 1 (amino acids 114 to 281 of SEQ ID NO: 1) and not linked or conjugated to any epitope tag sequences. After the Apo-2L.0 or Apo2L receptor binding peptide dilution step, 50 μL of SK-MES-1 human lung carcinoma cells (ATCC HTB58) (in RMPI-1640, 0.1% BSA) were added at a density of 2×10^4 cells/well. These mixtures were incubated at 37° C. for 24 hours. At 21 hours, 25 μL of alamarBlue (AccuMed, Inc., Westlake, Ohio) was added. Fluorescence was read using 96-well fluorometer with excitation at 530 nm and emission of 590 nm. The results are expressed in relative fluorescence units (RFU). For data analysis the 4-parameter curve fitting program (Kaleidagraph) was used.
“Ec 50” refers to the median effective concentration of peptide observed to induce apoptosis in 50% of the cell population.

T1 sequence (O14763 with tags, fused parts or gaps A67V/E190F/V191A): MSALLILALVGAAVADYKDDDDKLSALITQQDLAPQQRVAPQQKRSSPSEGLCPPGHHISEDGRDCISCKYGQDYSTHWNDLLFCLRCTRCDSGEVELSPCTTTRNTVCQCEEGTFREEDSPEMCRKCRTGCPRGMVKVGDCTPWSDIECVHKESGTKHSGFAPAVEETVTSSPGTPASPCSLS

GEVCLTSCSRLRGGSGGM KLKQIEDKLEEILSKLYHIENELARIKKLVGER (GEVCLTSCSRLRGGSGGMKLKQIEDKLEEILSKLYHIENELARIKKLVGER) [LB881-Tetramer]
IC50 [1]: 7 nM
EC50 [2]: 166 nM
